Laboratory results reported in patent US11207320B2, “Compositions and methods for cancer expressing PDE3A or SLFN12” (The Broad Institute, Inc., priority 2015, dated 2021).
This continues a long series; more values of the same kind are listed elsewhere.

Test system: 766 cancer cell lines
Assay: Large-scale cell-line viability measurements (766 cancer cell lines, 72 h, AUC)
Assay type: cell-based, human
Method: Cell lines were treated for 72 hours with concentrations ranging from 66.4 μM-2 nM in 2-fold step dilutions.
To characterize cellular sensitivity to DNMDP further, 766 genomically characterized cancer cell lines were screened for DMNDP sensitivity at concentrations ranging from 66.4 μM to 2 nM in 2-fold dilution steps for 72 hours. From these cell lines, 22 cell lines were categorized as sensitive with a robust Z-score lower than −4, which represented multiple lineages including multiple melanoma cell lines, amongst others (Table 1).
The sensitivity of […] cancer cell lines (CCLs) was measured drawn from 23 different lineages to DNMDP. Each cell line was plated in its preferred media in white opaque 1536-plates at a density of 500 cells/well. After incubating overnight, DNMDP was added by acoustic transfer at 16 concentrations ranging from 66.4 μM-2 nM in 2-fold steps in duplicate (Labcyte Echo 555, Labcyte Inc., Sunnyvale, Calif.). After 72 hours treatment, cellular ATP levels were measured as a surrogate for viability (CELLTITERGLO®, Promega Corporation, Madison, Wis.) according to manufacturer's protocols using a ViewLux Microplate Imager (PerkinElmer, Waltham, Mass.) and normalized to background (media-only) and vehicle (DMSO)-treated control wells.
Concentration response curves were fit using nonlinear fits to 2- or 3-parameter sigmoid functions through all 16 concentrations with the low-concentration asymptote set to the DMSO-normalized value, and an optimal 8-point dose curve spanning the range of compound-sensitivity was identified. The area under the 8-point dose curve (AUC) was computed by numeric integration as a metric for sensitivity for further analysis. Similar sensitivity measurements have been obtained for a collection of 480 other compounds, enabling analyses that identify cell lines responding uniquely to DNMDP (see Broad Institute Cancer Therapeutics Response Portal, a dataset to identify comprehensively relationships between genetic and lineage features of human cancer cell lines and small-molecule sensitivities for complete list of compounds).

[1] = cell line TCCSUP (URINARY TRACT)
[2] = cell line TE441T, SOFT TISSUE, 72 hours
[3] = cell line TF1 (HAEMATOPOIETIC AND LYMPHOID TISSUE)
[4] = cell line TM31 (CENTRAL NERVOUS SYSTEM)
[5] = cell line TOLEDO (HAEMATOPOIETIC AND LYMPHOID TISSUE)
[6] = cell line U87MG (CENTRAL NERVOUS SYSTEM)
[7] = cell line U251MG (CENTRAL NERVOUS SYSTEM)
[8] = cell line UMUC3 (URINARY TRACT)
[9] = cell line WSUDLCL2 (HAEMATOPOIETIC AND LYMPHOID TISSUE)
[10] = cell line X42MGBA (CENTRAL NERVOUS SYSTEM)
[11] = cell line X253J (URINARY TRACT)
[12] = cell line X253JBV (URINARY TRACT)
[13] = cell line X639V (URINARY TRACT)
[14] = cell line X5637, URINARY TRACT, 72 hours
[15] = cell line YD15 (SALIVARY GLAND)
[16] = cell line YD38 (UPPER AERODIGESTIVE TRACT)
[17] = cell line YKG1, CENTRAL NERVOUS SYSTEM, 72 hours

CCN(CC)c1ccc(C2=NNC(=O)CC2C)cc1[N+](=O)[O-] (stereo not drawn) [DNMDP, 6-(4-(diethylamino)-3-nitrophenyl)-5-methyl-4,5-dihydropyridazin-3(2H)-one]
DNMDP AUC [1]: 6.7056 | Robust Z-score [1]: 0.07447 | DNMDP AUC (cell line TE1 (OESOPHAGUS)): 6.6158 | Robust Z-score (cell line TE1 (OESOPHAGUS)): −0.01979 | DNMDP AUC (cell line TE4 (OESOPHAGUS)): 6.707 | Robust Z-score (cell line TE4 (OESOPHAGUS)): 0.07594 | DNMDP AUC (cell line TE5 (OESOPHAGUS)): 6.6355 | Robust Z-score (cell line TE5 (OESOPHAGUS)): 0.0008922 | DNMDP AUC (cell line TE6 (OESOPHAGUS)): 6.5328 | Robust Z-score (cell line TE6 (OESOPHAGUS)): −0.1069 | DNMDP AUC (cell line TE9 (OESOPHAGUS)): 6.8154 | Robust Z-score (cell line TE9 (OESOPHAGUS)): 0.1897 | DNMDP AUC (cell line TE10 (OESOPHAGUS)): 6.6127 | Robust Z-score (cell line TE10 (OESOPHAGUS)): −0.02304 | DNMDP AUC (cell line TE11 (OESOPHAGUS)): 6.7063 | Robust Z-score (cell line TE11 (OESOPHAGUS)): 0.07521 | DNMDP AUC (cell line TE14 (OESOPHAGUS)): 6.6652 | Robust Z-score (cell line TE14 (OESOPHAGUS)): 0.03207 | DNMDP AUC [2]: 7.1772 | Robust Z-score [2]: 0.5695 | DNMDP AUC (cell line TE617T (SOFT TISSUE)): 6.782 | Robust Z-score (cell line TE617T (SOFT TISSUE)): 0.1547 | DNMDP AUC [3]: 6.9682 | Robust Z-score [3]: 0.3501 | DNMDP AUC [4]: 6.6885 | Robust Z-score [4]: 0.05652 | DNMDP AUC [5]: 6.5926 | Robust Z-score [5]: −0.04414 | DNMDP AUC (cell line TT2609C02 (THYROID)): 6.7014 | Robust Z-score (cell line TT2609C02 (THYROID)): 0.07006 | DNMDP AUC (cell line TT (THYROID)): 7.0183 | Robust Z-score (cell line TT (THYROID)): 0.4027 | DNMDP AUC (cell line TUHR4TKB (KIDNEY)): 7.0861 | Robust Z-score (cell line TUHR4TKB (KIDNEY)): 0.4739 | DNMDP AUC (cell line TYKNU (OVARY)): 6.6296 | Robust Z-score (cell line TYKNU (OVARY)): −0.005301 | DNMDP AUC (cell line U2OS, BONE, 72 hours): 7.3013 | Robust Z-score (cell line U2OS, BONE, 72 hours): 0.6997 | DNMDP AUC [6]: 6.7949 | Robust Z-score [6]: 0.1682 | DNMDP AUC [7]: 7.091 | Robust Z-score [7]: 0.479 | DNMDP AUC [8]: 6.6662 | Robust Z-score [8]: 0.03312 | DNMDP AUC (cell line VMRCLCD (LUNG)): 6.6718 | Robust Z-score (cell line VMRCLCD (LUNG)): 0.03899 | DNMDP AUC (cell line VMRCRCW (KIDNEY)): 6.9222 | Robust Z-score (cell line VMRCRCW (KIDNEY)): 0.3018 | DNMDP AUC (cell line VMRCRCZ (KIDNEY)): 6.6107 | Robust Z-score (cell line VMRCRCZ (KIDNEY)): −0.02514 | DNMDP AUC (cell line WM115 (SKIN)): 6.8396 | Robust Z-score (cell line WM115 (SKIN)): 0.2151 | DNMDP AUC (cell line WM2664 (SKIN)): 6.8521 | Robust Z-score (cell line WM2664 (SKIN)): 0.2282 | DNMDP AUC [9]: 6.6801 | Robust Z-score [9]: 0.04771 | DNMDP AUC (cell line X22RV1 (PROSTATE)): 6.9813 | Robust Z-score (cell line X22RV1 (PROSTATE)): 0.3639 | DNMDP AUC [10]: 6.5397 | Robust Z-score [10]: −0.09966 | DNMDP AUC [11]: 6.8153 | Robust Z-score [11]: 0.1896 | DNMDP AUC [12]: 6.6694 | Robust Z-score [12]: 0.03648 | DNMDP AUC [13]: 6.6635 | Robust Z-score [13]: 0.03028 | DNMDP AUC (cell line X769P (KIDNEY)): 6.7486 | Robust Z-score (cell line X769P (KIDNEY)): 0.1196 | DNMDP AUC (cell line X786O (KIDNEY)): 6.9057 | Robust Z-score (cell line X786O (KIDNEY)): 0.2845 | DNMDP AUC [14]: 7.5183 | Robust Z-score [14]: 0.9275 | DNMDP AUC (cell line X2313287 (STOMACH)): 6.6886 | Robust Z-score (cell line X2313287 (STOMACH)): 0.05663 | DNMDP AUC (cell line YAPC (PANCREAS)): 6.6485 | Robust Z-score (cell line YAPC (PANCREAS)): 0.01454 | DNMDP AUC [15]: 6.8858 | Robust Z-score [15]: 0.2636 | DNMDP AUC [16]: 7.06 | Robust Z-score [16]: 0.4465 | DNMDP AUC [17]: 7.2376 | Robust Z-score [17]: 0.6329 | DNMDP AUC (cell line ZR751 (BREAST)): 7.054 | Robust Z-score (cell line ZR751 (BREAST)): 0.4402
